# Source: the supplement of paper PMC11181314
# Some of the results follow. Single values of this set are uncertain.
# Test system: U2OS
# Assay: Cell Painting induction (percent of morphological features significantly changed vs DMSO); higher = stronger morphological change
# Details: 10 µM, 20 h
# Experimental: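 Cell Painting assay in U2OS cells: compounds at 10 µM for 20 h, six dyes, 579 robust CellProfiler features as Z-scores vs DMSO median (MAD). Induction is the % of significantly changed features (active if ≥5%); relative cell count is in % of DMSO. The primary run holds DCM compounds preselected for induction ≥10%; the confirmation repeat defines active compounds (370 of 549). Replicate agreement is low, attributed to precipitation.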
# [1] = run: primary screen (compounds selected for induction >=10%)
# 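Note: stains mark DNA, RNA and nucleoli, ER, actin, Golgi, plasma membrane and mitochondria, read by high-content imaging, with DMSO controls at matching solvent concentration.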
SMILES,Cell Painting induction (run: confirmation repeat),Cell Painting induction [1] [%]
CC1=C(C(=O)OC2CCCC2)C(c2coc3ccc(C)cc3c2=O)C2=C(O)CCCC2=N1 (configuration not stated),inactive: 0%,10.5
Cc1ccc(Nc2cc(C(=O)NCCCN3CCOCC3)c3ccccc3n2)c(C)c1,active: 36.1%,14.5
COc1ccc(C)cc1NC(=O)c1nnn(Cc2cccc(F)c2)c1N,active: 25.9%,22.3
CCN(CC)CCCNC(=O)C1CCC(CNS(=O)(=O)c2c(C)cc(C)cc2C)CC1 (configuration not stated),active: 32%,30.1
O=C(NCCCN1CCOCC1)c1ccc2c(=O)n(Cc3ccc(Cl)cc3)c(=S)[nH]c2c1,active: 52.3%,57.5
CCOc1ccc(NC(=O)NCC2CCN(Cc3ccc(F)cc3)CC2)cc1,active: 24.5%,26.8
COc1ccc(N2CCN(S(=O)(=O)CCNC(=O)C34CC5CC(CC(C5)C3)C4)CC2)cc1,active: 14.2%,17.3
O=C(Cn1nc(-c2ccccc2)ccc1=O)NCCN1CCN(c2cccc(Cl)c2)CC1,active: 47.2%,42
CCn1cc(CN(C)C(=O)CSc2nc(-c3ccco3)cc(C(F)(F)F)n2)c(C)n1,active: 13.1%,16.4
CCOc1cc2[nH]c(=S)n(Cc3ccc(C(=O)NCCOC)cc3)c(=O)c2cc1OCC,active: 20.7%,25.9
Cc1ccc2nc(N3CCC(C(=O)NC4CCCCC4)CC3)sc2c1,active: 10.4%,35.1
Cc1c2cnn(-c3ccccc3)c(=O)c2c(C)n1CCCC(=O)N1CCN(C2CCCCC2)CC1,active: 24.5%,32.3
CCOc1cc(CNCCCN2CCOCC2)cc(Cl)c1OCC(=O)NC(C)(C)C,active: 33.7%,37.7
COc1ccc(CCNC(=O)C2CCN(Cc3nc(-c4ccc(Cl)cc4)oc3C)CC2)cc1OC,active: 6.4%,43
CC(C)c1ccc(NC(=O)Cn2cc(C(=O)c3ccccc3)c(=O)c3cc(Cl)ccc32)cc1,active: 13.1%,10.9
CCOCCCN(C)C1CCN(C(=O)c2oc3ccccc3c2NC(=O)Cc2ccc(F)cc2)CC1,active: 54.9%,42.7
CCO/C(O)=C1\C(C)=Nc2nc3ccccc3n2C1c1ccc(N(C)C)cc1 (configuration not stated),inactive: 1%,50.1
COc1ccc(-c2cnnc(N/N=C/c3ccc(OC)c(OC)c3)n2)cc1,active: 11.4%,23
COc1ccc(NC(=O)c2cc(S(=O)(=O)N3CCOCC3)cn2C)cc1Cl,inactive: 4.7%,13.6
CCOC(=O)c1ccc(NC(=O)c2cc(OC)c(OC)c(OC)c2)cc1,active: 14.5%,20.9
CC(=O)c1ccc(N2CCN(S(=O)(=O)c3cc(-c4cc(C)no4)ccc3C(C)C)CC2)cc1,active: 49.2%,28.8
O=C(Nc1ccc2nc3n(c(=O)c2c1)CCCCC3)C(=O)N1CCN(c2ccc(F)cc2)CC1,inactive: 0.2%,20.2
CC(NC(=O)c1cn(C)c2ccc(S(=O)(=O)N3CCCC3)cc2c1=O)c1ccccc1 (configuration not stated),inactive: 1.4%,13.5
COc1ccc(/C=C2\SC(=S)N(CCC(=O)Nc3cccc(O)c3)C2=O)cc1OC,active: 34.7%,47.2
O=C(Nc1ccc2c(c1)CCCN2C(=O)c1cccs1)c1c(F)cccc1F,active: 30.4%,22.1
COc1ccc(Cl)cc1-n1nnc(C(=O)Nc2cccc(C(F)(F)F)c2)c1C,active: 23%,28
